{"source": "PubChem BioAssay AID1345083", "about": "(National Center for Advancing Translational Sciences (NCATS), 2018)", "note": "About 6,200 (6.6%) of roughly 94,000 compounds were called active. Inconclusive results, whose numbers are uncertain, are shown with a selection of clear calls. The call rests on the fitted dose curve; in most records, active means well fitted inhibition curve with a large enough effect; inconclusive means small, poorly fitted or top-dose-only effect; inactive means flat fitted curve, though single readings scatter. Where the call is inconclusive, the potency comes from a doubtful curve fit."}
{"experiment": "Cytotoxic Profiling in HEK 293 Cell Line of Diverse Libraries Using Quantitative High-Throughput Screening; further: nearly all actives have a fitted effect of over 60% in size; further: potency means the concentration at half of the fitted maximal effect; tags describe the fitted curve by direction and shape; on activity change, negative = cytotoxicity: on the % scale 0 is the no-effect control and ±100 the full control effect", "settings": "HEK 293 viability, ATP luminescence (CellTiter-Glo), 48-72 h; activity change, negative = cytotoxicity: at 115 µM (top of the series) unless noted; series mostly up to 115 µM", "how_it_was_run": "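HEK 293 cells seeded at 250 cells/well were exposed to compound for 48 or 72 hr at 37 degree Celsius. Viability taken as ATP content by CellTiter-Glo luminescence.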"}
{"compound": "CC(C)NC(=O)c1ccccc1OCC1CCCN(Cc2ccc(Br)o2)C1", "note": "(configuration not stated)", "Potency": "inconclusive: 50.1 µM [inhibitor, partial curve, poor fit]"}
{"compound": "O=C(Cc1ccccc1Cl)Nc1cccc(-c2nnc3n2CCCC3)c1", "activity change, negative = cytotoxicity": "inactive: -9.91%"}
{"compound": "COc1ccc(C(=O)N2CCOCC3(CN(Cc4cc(F)ccc4F)C3)C2)cc1OC", "Potency": "active: 112 µM"}
{"compound": "O=C(Nc1cc(F)ccc1Cl)c1cc2n(n1)CC(c1ccc3c(c1)OCO3)OC2", "note": "(configuration not stated)", "Potency": "inconclusive: 56.2 µM [inhibitor, partial curve, poor fit]"}
{"compound": "COc1cc(F)ccc1-c1cc(-c2c(C)noc2C)cc2c1C(=O)N(C)C2", "Potency": "inconclusive: 56.2 µM [inhibitor, partial curve, poor fit]"}
{"compound": "O=[S+]1([O-])NCC2(CCN(Cc3ccccc3)C2)Nc2ccccc21", "note": "(configuration not stated)", "activity change, negative = cytotoxicity": "inactive: -3.9%"}
{"compound": "CC(C)(C)C(=O)Nc1cnc(-c2cccnc2)nc1", "activity change, negative = cytotoxicity": "inactive: -8.62%"}
{"compound": "C[C@@H](NC(=O)C1CCOCC1)c1onc(-c2ccc(F)cc2)c1C(=O)O", "outcome": "inactive [at 172 µM]"}
{"compound": "CCc1ccc(CN2CCCC23Cc2ccccc2CNC3=O)s1", "note": "(configuration not stated)", "Potency": "inconclusive: 89.1 µM [inhibitor, partial curve, poor fit]"}
{"compound": "COc1ccccc1Cn1c(=O)c(C(=O)N2CCN(C(C)=O)CC2)nc2cccnc21", "Potency": "inactive"}
{"compound": "O=C(CC1CCCCC1)N1CCC(Cc2nc(-c3ccc(F)cc3)no2)CC1", "Potency": "inconclusive: 35.5 µM [inhibitor, partial curve, poor fit]"}
{"compound": "COCCC1(NS(=O)(=O)c2ccccc2)CCN(S(C)(=O)=O)CC1", "activity change, negative = cytotoxicity": "inactive: -0.208%"}
{"compound": "CN(C)c1ccc(-n2c(=O)c(C(=O)NCC(F)(F)F)nc3cccnc32)cc1", "outcome": "inactive"}
{"compound": "CN(Cc1cccc2ccccc12)Cc1cccn1C", "Potency": "inconclusive: 126 µM [inhibitor, single point]"}
{"compound": "O=c1n(-c2ccc([N+](=O)[O-])cc2)nc2n1CCN(Cc1ccc(F)cc1)C2", "Potency": "active: 35.5 µM"}
{"compound": "COc1ccc(-c2cc(C(=O)NCc3ccc(F)cc3F)c3cnn(C)c3n2)cc1", "Potency": "inconclusive: 39.8 µM [inhibitor, partial curve]"}
{"compound": "COc1cc(=O)n2c(c1C(=O)Nc1ccc(Br)cc1F)CCCC2", "Potency": "inconclusive: 79.4 µM [inhibitor, partial curve, poor fit]"}
{"compound": "COc1ccc2[nH]c3c(c2c1)CCN(C)C31CCN(C(=O)c2ccco2)CC1", "Potency": "inconclusive: 39.8 µM [inhibitor, partial curve, poor fit]"}
{"compound": "N#Cc1ccccc1CN1CCCC12Cc1ccccc1CNC2=O", "note": "(configuration not stated)", "Potency": "inconclusive: 3.16 µM [inhibitor, full curve, poor fit]"}
{"compound": "Cc1cnc(C(=O)N2CC[C@H](CO)[C@H](N(C)C)C2)cn1", "activity change, negative = cytotoxicity": "inactive: -7.91%"}
{"compound": "CC(C)(C)CC(=O)Nc1nc2c(s1)C[C@@H]1[C@](C)(CO)[C@H](O)CC[C@@]1(C)[C@@H]2CC(=O)NC1CCCCC1", "Potency": "inconclusive: 89.1 µM [inhibitor, partial curve, poor fit]"}
{"compound": "CN(C)C(=O)c1cccnc1OC1CCN(S(=O)(=O)c2ccc3c(c2)CCC3)C1", "note": "(configuration not stated)", "Potency": "inconclusive: 28.2 µM [inhibitor, full curve]"}
{"compound": "CC(C)N1CCN(C2CCOC3(CCN(C(=O)NCc4ccccc4)CC3)C2)CC1", "note": "(configuration not stated)", "activity change, negative = cytotoxicity": "inactive: 1.56%"}
{"compound": "CCOc1cc(=O)n2c(c1C(=O)Nc1ccc(OC)cc1OC)CCCC2", "Potency": "inconclusive: 25.1 µM [inhibitor, full curve, poor fit]"}
{"compound": "CCc1nc(NC(c2ccccc2)c2ccco2)c2cnn(C)c2n1", "note": "(configuration not stated)", "Potency": "active: 39.8 µM"}
{"compound": "O=C(N[C@@H]1CCN(Cc2nc3c(s2)CCCC3)C[C@H]1O)c1ccccn1", "activity change, negative = cytotoxicity": "inactive: 3.73%"}
{"compound": "CC1(C(=O)NCc2cccnc2)CCCc2cnc(NCc3ccccc3)nc21", "note": "(configuration not stated)", "Potency": "inconclusive: 112 µM [inhibitor, partial curve]"}
{"compound": "CC(C)NC(=O)C1CCCN(c2ccnc3ccnn23)C1", "note": "(configuration not stated)", "activity change, negative = cytotoxicity": "inactive: -15.7% [at 172 µM]"}
{"compound": "O=C1C[C@H]2CC[C@@H](CN1)N2C(=O)c1csc2nc(-c3ccccc3Cl)cn12", "Potency": "inconclusive: 89.1 µM [inhibitor, partial curve, poor fit]"}
{"compound": "COc1cc(CN2CCC3(CC2)CC(O)CCO3)ccc1F", "note": "(configuration not stated)", "activity change, negative = cytotoxicity": "inactive: 1.59%"}
{"compound": "Cc1ccc(C2Cn3nnc(C(=O)N4CCC(C(=O)NCc5cc(F)ccc5F)CC4)c3CO2)cc1", "note": "(configuration not stated)", "activity change, negative = cytotoxicity": "inactive: -21.3%"}
{"compound": "COC(=O)CCCNC(=O)C1c2ccccc2C(=O)N(c2ccccc2)C12CCCCC2", "note": "(configuration not stated)", "Potency": "inconclusive: 44.7 µM [inhibitor, partial curve, poor fit]"}
{"compound": "CNC(=O)c1cc(-c2cccc(OC)c2OC)cc2c1OCCN2Cc1cccnc1", "Potency": "inconclusive: 100 µM [inhibitor, partial curve, poor fit]"}
{"compound": "CN(CC1(c2ccccc2)CC1(C)C)C(=O)c1cn(C/C=C/c2ccccc2)nn1", "note": "(configuration not stated)", "Potency": "inconclusive: 70.8 µM [inhibitor, partial curve, poor fit]"}
{"compound": "O=C(OCc1ccccc1)N1CCOCC12CCN(Cc1cccc(O)c1)CC2", "Potency": "inconclusive: 100 µM [inhibitor, partial curve]"}
{"compound": "Cn1cc(-c2ccncc2)cc1C(=O)N1CCN(c2cccc(Cl)c2)CC1", "Potency": "inconclusive: 39.8 µM [inhibitor, partial curve, poor fit]"}
{"compound": "O=C(c1n[nH]c2ccccc12)N1CCc2nn(Cc3ccccc3)c(=O)n2CC1", "Potency": "inconclusive: 100 µM [inhibitor, single point]"}
{"compound": "O=C(c1n[nH]c2ccccc12)N1CCCC1c1nc(CCOCC2CC2)no1", "note": "(configuration not stated)", "activity change, negative = cytotoxicity": "inactive: -21.3%"}
{"compound": "O=C(Nc1ccc(Cl)cc1)N1Cc2[nH]cnc2C[C@H]1c1nc(-c2ccc3ccccc3c2)no1", "Potency": "inconclusive: 50.1 µM [inhibitor, partial curve, poor fit]"}
{"compound": "CN[C@@H](C)c1nc(C2CCOCC2)nn1CC1CCCCC1", "outcome": "inactive"}
{"compound": "O=C1NCc2ccccc2CC12CCCCN2Cc1cnc2ccccc2c1", "note": "(configuration not stated)", "Potency": "inconclusive: 79.4 µM [inhibitor, single point]"}
{"compound": "Cc1cc(F)ccc1OC1CN(Cc2ccccc2)C1", "Potency": "inconclusive: 50.1 µM [inhibitor, partial curve]"}
{"compound": "CC(=O)N1CC(CO)C2(CCN(Cc3ccc(C)o3)CC2)C1", "note": "(configuration not stated)", "Potency": "inconclusive: 89.1 µM [inhibitor, single point]"}
{"compound": "COc1ccc(CN2CC(COc3ccccc3)Oc3ncccc3[S+]2(=O)[O-])cc1", "note": "(configuration not stated)", "Potency": "active: 22.4 µM"}
{"compound": "Cc1ccc(-c2cc(N3CCC(CNC(=O)c4ccc[nH]4)CC3)n[nH]2)cc1", "Potency": "inconclusive: 50.1 µM [inhibitor, partial curve, poor fit]"}
{"compound": "C[S+](=O)([O-])N1CCC(Cn2ccc3c(N4CCOCC4)nc(-c4cccc5[nH]ccc45)cc32)CC1", "Potency": "inconclusive: 31.6 µM [inhibitor, partial curve]"}
{"compound": "CC(C)(C)OCC(O)CN1CCC(=O)N(CC2CC2)Cc2cc(F)ccc21", "note": "(configuration not stated)", "Potency": "inconclusive: 79.4 µM [inhibitor, single point]"}
{"compound": "COc1ccc(Nc2ccnc(N3CC4CCC(C3)N4CC(F)(F)F)n2)cc1", "Potency": "active: 31.6 µM"}
{"compound": "CC(=O)N1Cc2ccccc2OC2(CCN(C(=O)NC(C)C)CC2)C1", "activity change, negative = cytotoxicity": "inactive: -24.8%"}
{"compound": "COc1cccc(CN2CCc3c(cc(C(=O)NCc4cccs4)n3C)C2)c1", "Potency": "inconclusive: 50.1 µM [inhibitor, partial curve, poor fit]"}
{"compound": "N#Cc1cccnc1-c1cccc(C(=O)NCCNC(=O)c2ccc(F)cc2)c1", "Potency": "inconclusive: 44.7 µM [inhibitor, partial curve, poor fit]"}
{"compound": "Cn1cc(CCC(=O)Nc2ccc3c(c2)C(=O)N2CCC[C@H]2C(=O)N3)c2ccccc21", "Potency": "inconclusive: 100 µM [inhibitor, single point]"}
{"compound": "CN(C)CCNC(=O)C[C@@H]1CCNC[C@@H]1Cc1cc(CN(C)Cc2ccccc2)on1", "activity change, negative = cytotoxicity": "inactive: -2.57% [at 172 µM]"}
{"compound": "COc1cccc(-c2cc(C3CCN(C(=O)Nc4cc(C)cc(C)c4)CC3)[nH]n2)c1", "Potency": "active: 39.8 µM"}
{"compound": "Cc1cc(F)cc(CN2CCc3nc(C(=O)NCC4CC4)oc3CC2)c1", "Potency": "inconclusive: 44.7 µM [inhibitor, partial curve, poor fit]"}
{"compound": "OC1CC([C@H](NC2CSCCSC2)c2ccc3c(c2)CCO3)C1", "note": "(some centres not stated)", "outcome": "inactive"}
{"compound": "O=C1c2cnc(-c3ccncc3)nc2OCCN1Cc1ccc(F)cc1F", "Potency": "inconclusive: 44.7 µM [inhibitor, partial curve]"}
{"compound": "O=C(C1CCC1)N1CCCC(c2noc(COc3ccccc3F)n2)C1", "note": "(configuration not stated)", "Potency": "inconclusive: 89.1 µM [inhibitor, single point]"}
{"compound": "COc1ccc(Nc2cc3c(nc2OC)nc(CCc2ccccc2)n3C)cn1", "Potency": "inconclusive: 100 µM [inhibitor, partial curve, poor fit]"}
{"compound": "Cn1nc2n(c1=O)CCN(S(=O)(=O)Cc1ccccc1)CC2", "activity change, negative = cytotoxicity": "inactive: 4.64%"}
{"compound": "CCOc1ccccc1CN1C[C@@H](CO)[C@H](c2nc(C)no2)C1", "activity change, negative = cytotoxicity": "inactive: -13.7%"}
{"compound": "CC1=C[C@@H](CNC(=O)CN(C)C)[C@H](C(C)C)C[C@H]1Cc1nnc(-c2ccccc2F)o1", "Potency": "inconclusive: 70.8 µM [inhibitor, partial curve, poor fit]"}
{"compound": "CS(=O)(=O)N1CCC2(CC1)CC(c1ccccc1)C(=O)N(C1CC1)C2", "note": "(configuration not stated)", "activity change, negative = cytotoxicity": "inactive: -9.67%"}
{"compound": "COc1cccc(CNC(=O)c2cc(-c3cccnc3)nc3c2cnn3C)c1", "Potency": "inconclusive: 50.1 µM [inhibitor, partial curve, poor fit]"}
{"compound": "COCCCNC(=O)C(NC(=O)c1cccc(C)c1)C1CCN(C(=O)c2ccc(C)cc2)CC1", "note": "(configuration not stated)", "activity change, negative = cytotoxicity": "inactive: -2.46%"}
{"compound": "Cc1ccc(OCCC2CCN(C(=O)Cn3cnc4c3c(=O)n(C)c(=O)n4C)C2)cc1", "note": "(configuration not stated)", "Potency": "inconclusive: 79.4 µM [inhibitor, partial curve, poor fit]"}
{"compound": "Cc1cccc(OCC(=O)NCCn2ccn3nc(-c4ccc(C)cc4C)cc3c2=O)c1", "Potency": "inconclusive: 56.2 µM [inhibitor, partial curve, poor fit]"}
